Source: the supplement of paper PMC4967469
IC50 is the fitted dose that halves viability relative to control wells, and lower means more sensitive; where the fit passes the top or lowest dose, that dose stands as a limit. The AUC spans the tested range (256-fold, ending at the top dose) of the same fit; values near 1 show little effect. For some assays here: A top dose marked as inferred comes from the curve model; the source does not state it. For some assays here: Where an entry number is given, a second screen of the drug exists; the two often differ.

Experiments:
Assay in all cases: Viability of human cancer cell lines after 72 h of drug (GDSC screen)
Y-39983 = compound: C[C@@H](N)c1ccc(C(=O)Nc2ccnc3[nH]ccc23)cc1 [Y-39983]; settings: top dose 20 µM; top dose inferred
Procedure: (§1)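 Human cancer cell lines in 384-well plates, medium with 10% serum, drug for 72 h over a 256-fold dose range (nine 2-fold or five 4-fold steps up to the top dose). Adherent lines were fixed and stained with the nucleic acid dye Syto60, suspension lines read with resazurin; signal relative to control wells, capped at 0 and 100%. One two-parameter sigmoid per drug and line, fitted in a mixed model over all curves with the slope shared within a line.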

PHA-793887 = compound: CC(C)CC(=O)Nc1n[nH]c2c1CN(C(=O)C1CCN(C)CC1)C2(C)C [PHA-793887]; settings: top dose 10.24 µM
Procedure: as §1

TPCA-1 = compound: NC(=O)Nc1sc(-c2ccc(F)cc2)cc1C(N)=O [TPCA-1]; settings: top dose 20 µM
Procedure: as §1

Epothilone B = compound: C/C(=C\c1csc(C)n1)[C@@H]1C[C@@H]2O[C@]2(C)CCC[C@H](C)[C@H](O)[C@@H](C)C(=O)C(C)(C)[C@@H](O)CC(=O)O1 [Epothilone B]; settings: top dose 0.032 µM; top dose inferred
Procedure: as §1

PLX4720 = compound: CCCS(=O)(=O)Nc1ccc(F)c(C(=O)c2c[nH]c3ncc(Cl)cc23)c1F [PLX4720]; settings: top dose 10 µM
Procedure: as §1

[1] = screen: GDSC drug entry 1371, top dose inferred

Row | Cell Line | AUC (Y-39983) | IC50 (Y-39983) | AUC (PHA-793887) | IC50 (PHA-793887) | AUC (TPCA-1) | IC50 (TPCA-1) | AUC (Epothilone B) | IC50 (Epothilone B) | AUC (PLX4720; screen: GDSC drug entry 1036) | IC50 (PLX4720; screen: GDSC drug entry 1036) | AUC (PLX4720; [1]) | IC50 (PLX4720; [1])
1 | HT-1376 (bladder, adherent) | 0.985 | > 20 µM | 0.985 | > 10.2 µM | 0.985 | > 20 µM | 0.768 | 14.1 nM | 0.913 | > 10 µM | 0.958 | > 10 µM
2 | HTC-C3 (thyroid, adherent) | 0.921 | > 20 µM | 0.978 | > 10.2 µM | 0.522 | 1.44 µM | 0.563 | 3.03 nM |  |  | 0.64 | 1.6 µM
3 | HeLa (cervix, adherent) | 0.977 | > 20 µM | 0.979 | > 10.2 µM | 0.947 | > 20 µM | 0.38 | 0.949 nM | 0.984 | > 10 µM | 0.986 | > 10 µM
4 | Hep 3B2_1-7 (liver, adherent) | 0.974 | > 20 µM | 0.987 | > 10.2 µM | 0.853 | 15.6 µM | 0.534 | 2.47 nM | 0.92 | > 10 µM | 0.941 | > 10 µM
5 | Hs633T (fibrosarcoma, adherent) | 0.867 | 12.8 µM | 0.865 | 6.45 µM | 0.828 | 9.37 µM | 0.309 | 0.656 nM | 0.911 | 9.77 µM | 0.973 | > 10 µM
6 | Hs683 (glioma, adherent) | 0.988 | > 20 µM | 0.933 | > 10.2 µM | 0.955 | > 20 µM | 0.468 | 1.63 nM | 0.921 | > 10 µM | 0.969 | > 10 µM
7 | Hs766T (pancreas, adherent) | 0.979 | > 20 µM | 0.98 | > 10.2 µM | 0.983 | > 20 µM | 0.966 | > 32 nM | 0.937 | > 10 µM | 0.98 | > 10 µM
8 | Hs939-T (melanoma, adherent) | 0.966 | > 20 µM | 0.984 | > 10.2 µM | 0.967 | > 20 µM | 0.918 | > 32 nM | 0.747 | 3.45 µM | 0.793 | 5.06 µM
9 | Hs940-T (melanoma, adherent) | 0.984 | > 20 µM | 0.902 | > 10.2 µM | 0.984 | > 20 µM | 0.508 | 2.11 nM |  |  | 0.862 | > 10 µM
10 | Hs-578-T (breast, adherent) | 0.975 | > 20 µM | 0.987 | > 10.2 µM | 0.987 | > 20 µM | 0.903 | > 32 nM | 0.978 | > 10 µM | 0.986 | > 10 µM
11 | HuCCT1 (biliary tract, adherent) | 0.966 | > 20 µM | 0.73 | 3.14 µM | 0.787 | 9.81 µM | 0.543 | 2.65 nM | 0.941 | > 10 µM | 0.959 | > 10 µM
12 | HuH-7 (liver, adherent) | 0.973 | > 20 µM | 0.986 | > 10.2 µM | 0.942 | > 20 µM | 0.685 | 6.57 nM | 0.957 | > 10 µM | 0.98 | > 10 µM
13 | HuO9 (osteosarcoma, adherent) | 0.983 | > 20 µM | 0.774 | 4.46 µM | 0.947 | > 20 µM | 0.976 | > 32 nM | 0.905 | > 10 µM | 0.96 | > 10 µM
14 | HuO-3N1 (osteosarcoma, adherent) | 0.87 | > 20 µM | 0.962 | > 10.2 µM | 0.925 | > 20 µM | 0.923 | > 32 nM | 0.933 | > 10 µM | 0.973 | > 10 µM
15 | HuP-T3 (pancreas, adherent) | 0.962 | > 20 µM | 0.85 | > 10.2 µM | 0.828 | 16.3 µM | 0.583 | 3.57 nM | 0.983 | > 10 µM | 0.974 | > 10 µM
16 | HuP-T4 (pancreas, adherent) | 0.896 | > 20 µM | 0.449 | 0.46 µM | 0.532 | 1.54 µM | 0.506 | 2.08 nM | 0.954 | > 10 µM | 0.934 | > 10 µM
17 | IGR-1 (melanoma, adherent) | 0.975 | > 20 µM | 0.99 | > 10.2 µM | 0.782 | 7.31 µM | 0.374 | 0.944 nM | 0.908 | > 10 µM | 0.927 | > 10 µM
18 | IHH-4 (thyroid, semi-adherent) | 0.992 | > 20 µM | 0.46 | 0.508 µM | 0.953 | > 20 µM | 0.231 | 0.409 nM | 0.862 | 5.94 µM | 0.862 | 5.92 µM
19 | IPC-298 (melanoma, adherent) | 0.977 | > 20 µM | 0.938 | > 10.2 µM | 0.822 | 11.5 µM | 0.842 |  | 0.904 | > 10 µM | 0.929 | > 10 µM
20 | J82 (bladder, adherent) | 0.98 | > 20 µM | 0.988 | > 10.2 µM | 0.979 | > 20 µM | 0.44 | 1.37 nM |  |  | 0.987 | > 10 µM
21 | JEG-3 (urogenital system, adherent) | 0.991 | > 20 µM | 0.935 | > 10.2 µM | 0.991 | > 20 µM | 0.626 | 4.28 nM | 0.983 | > 10 µM | 0.99 | > 10 µM
22 | JHH-1 (liver, adherent) | 0.985 | > 20 µM | 0.759 | 3.87 µM | 0.782 | 9.11 µM | 0.656 | 5.64 nM | 0.985 | > 10 µM | 0.983 | > 10 µM
23 | JHH-2 (liver, adherent) | 0.978 | > 20 µM | 0.788 | 4.87 µM | 0.858 | 18.5 µM | 0.875 | > 32 nM | 0.957 | > 10 µM | 0.969 | > 10 µM
